Among the data in PubChem BioAssay AID1346428 (National Center for Advancing Translational Sciences (NCATS), 2018) are activation values, retold here.

The whole screen tested about 48,000 compounds, of which about 1,200 (2.5%) were called active. Another 2% or so got no clear call; they are omitted.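 Rule for the calls: active = activation of at least 60% and not above a set upper limit (about 1 call in 100 departs from these limits); inconclusive = activation of 40% to 60%, or above that upper limit; inactive = activation under 40%.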 Some of the results follow. Some structures have more than one record in an assay (separate samples or runs), and their calls can disagree.

Sequence of UniProt O75388 (O75388 whole entry, looked up): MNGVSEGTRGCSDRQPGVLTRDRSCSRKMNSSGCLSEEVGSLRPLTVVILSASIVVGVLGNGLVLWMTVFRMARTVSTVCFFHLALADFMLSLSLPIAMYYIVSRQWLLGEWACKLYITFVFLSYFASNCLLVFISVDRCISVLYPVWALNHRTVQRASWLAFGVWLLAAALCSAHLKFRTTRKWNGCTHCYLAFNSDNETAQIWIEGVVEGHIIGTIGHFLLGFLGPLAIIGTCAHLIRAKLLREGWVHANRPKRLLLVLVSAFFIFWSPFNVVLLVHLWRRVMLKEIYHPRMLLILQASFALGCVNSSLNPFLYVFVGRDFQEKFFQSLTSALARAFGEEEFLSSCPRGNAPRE

The assay has as its target Probable G-protein coupled receptor 32 (Homo sapiens) (UniProt O75388). The experiment in a line: qHTS for Agonists of Human Resolvin D1 Receptor DRV1. Note: 0% is about no effect. The settings on record: CHO-K1 GPR32 beta-arrestin PathHunter luminescence, 90 min; at 76.9 µM; hits give high values; zero percent set by DMSO-only wells. A digest of the protocol:
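Cells are plated overnight, treated with compounds in DMSO for 90 minutes at 37 °C, and developed with PathHunter detection reagent for 1 hour before luminescence is read; signal reflects beta-arrestin binding to GPR32 in engineered CHO-K1 cells.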
On the technique in general: In qHTS, concentration-response curves come from the screen itself.
For the compound `COC(=O)c1cc2occc2n1Cc1nc(-c2ccc(C)cc2)oc1C`, the activation was inactive: -33.7%.
The result for `CCC(=O)Nc1nnc(S(=O)(=O)N2CCc3ccccc32)s1` reads inactive: -4.49%.
On to `CCn1cc2nc(SCc3ccccc3F)n(Cc3ccc(C)cc3)c(=O)c2n1`, for which the activation is inactive: -0.997%.
`Cc1ccc(NC(=O)CCS(=O)(=O)c2cccc3nsnc23)c(C)c1`: the activation is inactive: 17.8%.
With `CCN(Cc1ccccc1)C(=O)CN1C(=O)COc2ccc(S(=O)(=O)N3CCCCCC3)cc21`, the activation is inactive: -48.3%.
On to `CCOc1ccc(NC(=O)CCS(=O)(=O)c2ccc3c(c2)n(C)c(=O)c(=O)n3C)cc1`, for which the activation is inactive: -10.8%.
For `Cc1ccc2cccc(NC(=O)C(C)(C)Oc3ccc(Br)cc3)c2n1`, the activation was inactive: -4.79%.
For the compound `CCCS(=O)(=O)Nc1cc2c(cc1NCc1ccccc1)n(C)c(=O)n2C`, the activation was inactive: 30%.
With `CCOc1ccc(NC(=O)CSc2nc(-c3ccc(F)cc3)cc(C(F)(F)F)c2C#N)cc1`, the activation was inactive: -11.6%.
For `CCOC(=O)c1ccccc1NC(=O)Cn1c2ncccc2c(=O)n1-c1ccccc1`, the activation was inactive: 8.48%.
With `Cc1ccc(C)c(N2CCN(Cc3nnc(-c4ccccc4)o3)CC2)c1` the figure was inactive: -12.3%; with `COc1cccc(C(=O)c2cn(CC(=O)Nc3cccc(C)c3C)c3nc(C)ccc3c2=O)c1`, inactive: -3.29%; with `CCOC(=O)CSc1nc2ccc(NC(=O)c3ccccc3)cc2s1`, active: 82%.
As to `COc1cc(-c2nnc(SCCOc3ccc(C)c(Cl)c3)o2)cc(OC)c1OC`, the activation is inactive: -9.55%.
As to `CCOCCCn1c(SCC(=O)Nc2ccc(OC)cc2OC)nc2ccccc2c1=O`, the activation is inactive: -12.9%.
The result for `Cc1ccc(CN2CCc3nc(SCC(=O)Nc4cccc(C)c4C)[nH]c(=O)c3C2)cc1` reads inactive: 11.4%; that for `Cc1cccc(C)c1NC(=O)Cn1nc(C)c2sc3ccccc3c2c1=O`, inactive: -9.05%; that for `COc1ccc(-c2cn3c(n2)sc2cc(C(=O)Nc4cc(Cl)ccc4C)ccc23)cc1`, inactive: -4.79%.
The result for `CCc1ccc(C(=O)Nc2ccc3nn(-c4ccc(C)c(Cl)c4)nc3c2)cc1` reads inactive: -6.18%; that for `COC(=O)c1c(NC(=O)CCCOc2ccccc2C)sc2c1CCC(C)C2` (centres undefined), inactive: 30.1%.
The result for `Cc1ccc(OCc2nc(-c3ccc(C(=O)NCCc4ccc(S(N)(=O)=O)cc4)cc3)oc2C)cc1` reads active: 82.3%.
Consider `CCc1ccc(NC(=O)CCCc2nc(-c3ccco3)no2)cc1`, for which the activation is inactive: -1.05%.
On to `COc1cc2[nH]c(=O)n(CCCC(=O)NCc3ccccc3)c(=O)c2cc1OC`, for which the activation was inactive: -0.346%.
With `COc1ccc(CNC(=O)c2c(Nc3ccccc3C)sc(C(=O)c3ccccc3)c2N)cc1` the figure was inactive: -84.2%.
Regarding `O=C(Nc1ccc2nc(SCC(=O)N3CCCC3)sc2c1)c1ccccc1F`, the activation was inactive: 2.56%.
Consider `COc1ccccc1CNC(=O)CN1C(=O)CCc2cc(S(=O)(=O)N3CCOCC3)ccc21`, for which the activation was inactive: 33.1%.
The result for `COc1ccc(NC(=O)c2cc(-c3ccccc3O)no2)cc1` reads inactive: -7.88%; that for `Cc1ccc(NC(=O)CN2C(=O)CCc3cc(S(=O)(=O)N4CCCCC4)ccc32)cc1N(C)C`, inactive: 14.5%; that for `CC1CN(C(=O)N2CCC(C(=O)NCc3ccco3)CC2)c2cc(Cl)ccc2O1` (centres undefined), inactive: 3.17%.
On to `CCOC(=O)c1sc2ccccc2c1S(=O)(=O)N1CCN(c2ccccc2)CC1`, for which the activation is inactive: -16.7%.
With `CCOC(=O)c1cccc(N)c1` the figure was inactive: 5.1%; with `O=C(CSc1nc(-c2cccs2)nc2cc(=O)[nH]n12)Nc1ccc(F)cc1`, inactive: -37.5%; with `CCOC(=O)c1cnc2c(C(F)(F)F)cccc2c1Nc1cccc(C(=O)OC)c1`, inactive: -6.85%.
In the case of `CCOc1ccccc1NC(=O)CSc1nc2c(oc3ccccc32)c(=O)n1Cc1ccco1`, the activation is inactive: -28.7%.
Consider `Cc1ccc(Cl)cc1NC(=O)CSc1nc(C)c(C)c(C)c1C#N`, for which the activation is active: 115%.
For the compound `COc1ccc(-c2noc(CSc3nnc(-c4ccc(Cl)cc4)n3C)n2)cc1OC`, the activation was inactive: 0.748%.
As to `COc1ccc(CCNC(=O)Cn2cc(S(=O)(=O)Cc3cccc(Cl)c3)c3ccccc32)cc1OC`, the activation is inactive: -7.82%.
For the compound `CCc1cnc2c(c1SCC(=O)Nc1cc(Cl)ccc1OC)c(=O)n(C)c(=O)n2C`, the activation is inactive: 8.67%.
For the compound `CC(C)c1ccc(NC(=O)CSc2nc(=O)n(Cc3cccnc3)c3c2CCC3)cc1`, the activation is inactive: 0.114%.
Turning to `CN1CCN(C(=O)Nc2cccc(Cl)c2)c2cccnc21`, the activation is inactive: 27.7%.
Consider `Cc1ccc(CNC(=O)C2CCCN(S(=O)(=O)c3ccc4c(ccn4C)c3)C2)cc1` (centres undefined), for which the activation is inactive: -0.631%.
On to `CCCCN(CCCC)CCNC(=O)c1cc(=O)[nH]c2ccc(S(=O)(=O)N3CCCCCC3)cc12`, for which the activation was inactive: -12.4%.
For `CCc1ccc(CNC(=O)C2CCN(C(=O)N3CC(CC)Oc4ccc(C)cc43)CC2)cc1` (centres undefined), the activation is inactive: -21.1%.
For the compound `Cc1cc(C)c(NC(=O)CSc2ncc(S(=O)(=O)c3ccc(C(C)(C)C)cc3)c(=O)[nH]2)c(C)c1`, the activation is inactive: 46.5%.
`O=C(NC1CCCC1)c1ccc2c(c1)N(Cc1ccccc1Cl)C(=O)c1ccccc1S2`: the activation was inactive: -12.5%.
Regarding `COc1ccccc1Nc1c2c(nc3ccc(NC(=O)c4cccc(F)c4)cc13)CCCC2`, the activation was inactive: -0.372%.
With `COc1ccccc1CNC(=O)CS(=O)Cc1nc(-c2ccc(OC)c(OC)c2)oc1C` (centres undefined) the figure was inactive: -16.1%.
For the compound `CC(=O)c1nn(-c2ccc(OC(F)(F)F)cc2)nc1Nc1ccc(C)cc1`, the activation is inactive: 5.96%.
For the compound `CCOC(=O)c1ccc(NC(=O)C2CCN(S(=O)(=O)c3ccc(C)cc3)CC2)cc1`, the activation is inactive: -1.33%.
With `COc1ccc(Nc2cc(C)c3cc(NC(=O)Cc4c(F)cccc4Cl)ccc3n2)cc1`, the activation was inactive: 17.2%.
For `CCN(Cc1ccccc1)C(=O)C1CCN(S(=O)(=O)c2c(C)noc2/C=C/c2ccc(C)cc2)CC1`, the activation is inactive: -20%.
`Cc1ccc2nc(-c3ccc(NC(=O)COc4ccc(Cl)c(C)c4)cc3)sc2c1`: the activation is inactive: -4.67%.
For the compound `CCC1CN(C(=O)N2CCC(C(=O)O)CC2)c2cc(C)ccc2O1` (centres undefined), the activation was inactive: 4.63%.
On to `CCCNCC(O)COc1ccccc1C(=O)CCc1ccccc1` (centres undefined), for which the activation is inactive: 2.25%.
As to `Cc1ccc(CCNC(=O)c2ccc(CSCc3ccccc3C)o2)cc1`, the activation was inactive: -23.3%.
`CCOc1ccc(CNS(=O)(=O)c2ccc(-c3cc(C(F)(F)F)on3)s2)cc1`: the activation was inactive: 1.46%.
The result for `COc1ccccc1CNC(=O)c1sc2nc3n(c(=O)c2c1C)CCC3` reads inactive: -18%; that for `CCn1c(SCc2ccccc2F)nc(=O)c2c(C(=O)OC)cc(C3CC3)nc21`, inactive: 0.0152%.
Turning to `CCOc1ccc(Cl)cc1C1CC(=O)Nc2cc(OC)c(OC)c(OC)c21` (centres undefined), the activation was inactive: -11.7%.
As for `Cc1cccc(N2CCN(C(=O)c3ccc(NC(=O)c4nsc5ccccc45)cc3)CC2C)c1` (centres undefined), the activation was inactive: 8.22%.
On to `CCCNc1ccc(-c2nc(-c3ccncc3)no2)cc1[N+](=O)[O-]`, for which the activation is inactive: -22.7%.
With `CCOc1ccc(-c2cc(C(=O)NCc3ccc(C)cc3)c3ccccc3n2)cc1`, the activation is inactive: -2.89%.
As to `CCOC(=O)C1CCCN(C(=O)Cn2ncc3c([nH]c4ccc(C)cc43)c2=O)C1` (centres undefined), the activation was inactive: 16.1%.
As for `NC(=O)C(c1ccccc1)(c1ccccc1)[C@@H]1CCN(CCc2ccc3c(c2)CCO3)C1`, the activation is inactive: -9.43%.
On to `Cc1ccc(C)c(N2CCN(C(=O)c3ccc4[nH]c(C)c(C)c4c3)CC2)c1`, for which the activation was inactive: -10.9%.
On to `CCCC(CCC)C(=O)Nc1cccc(-c2cn3cccnc3n2)c1`, for which the activation is inactive: 20.9%.
Regarding `CSc1nc2c([nH]c3ccccc32)c(=O)n1-c1ccc(C)cc1`, the activation is inactive: 45.1%.
Consider `Cc1ccc2nc(-c3ccc(Cl)c(NC(=O)c4ccc(Br)o4)c3)oc2c1`, for which the activation was inactive: -9.02%.
With `O=C(COCc1cc(-c2ccc3c(c2)OCO3)on1)NCc1ccc(F)cc1` the figure was inactive: -7.83%; with `CSc1ccc(CCNC(=O)c2ccc(CS(=O)Cc3ccc(Cl)cc3)o2)cc1` (centres undefined), inactive: 16.6%; with `O=C(CSc1nc(-c2cccs2)nc2cc(=O)[nH]n12)Nc1ccccc1Cl`, inactive: -41.6%.
For `COc1cc(C2CC(=O)Nc3c2c(C)nn3-c2nncc(-c3ccccc3)n2)cc(OC)c1OC` (centres undefined), the activation is inactive: 5.13%.
With `Cc1ccc(Cl)cc1NC(=O)c1cc(S(=O)(=O)N2CCCCCC2)cn1C` the figure was inactive: 8.31%; with `CCc1ccc2c(c1)NC(c1cccnc1)=NC(c1ccc(C(C)(C)C)cc1)=N2`, inactive: -8.02%; with `Cc1cccc(-c2nc(CSCC(=O)N3CCN(c4cccc(C)c4C)CC3)c(C)o2)c1`, inactive: -16.4%.
In the case of `Cc1ccc(C)c(N2CCN(S(=O)(=O)c3cc(C(=O)Nc4cc(Cl)cc(Cl)c4)ccc3F)CC2)c1`, the activation is inactive: -8.45%.
Turning to `O=C(Nc1ccccc1Cl)c1cc2c(-c3ccccc3)nn(-c3ccccc3)c2s1`, the activation was inactive: -5.27%.
For `CCN(c1ccccc1)c1nnc(NC(=O)Nc2ccc(C)cc2)s1`, the activation was inactive: 1.31%.
In the case of `O=C(OCc1cc(=O)n2nc(-c3cccs3)sc2n1)c1ccc(F)cc1`, the activation is inactive: -16.8%.
For the compound `COc1ccc(Nc2ncc3c(n2)CCN(Cc2ccc(Br)s2)C3)c(OC)c1`, the activation was inactive: -16.1%.
As to `Cc1ccc2nc3c(cc(C#N)c(=O)n3-c3nnc(SCc4ccccc4Cl)s3)c(=O)n2c1`, the activation is inactive: -7.54%.
`COc1ccc(/C=C/c2nc(C#N)c(N3CCC(C)CC3)o2)cc1OC`: the activation was inactive: -26.9%.
As for `CCOc1ccc(C(=O)Nc2cccc(-c3nc4cccnc4s3)c2C)cc1OCC`, the activation was inactive: -10.8%.
With `CC(=O)N1N=C(c2ccc(C)cc2)CC1c1cn(-c2ccccc2)nc1-c1cccs1` (centres undefined), the activation is inactive: -5.6%.
